According to publication PMC12222028:
These are yes or no findings as the source states them, for the method shown. For some of these results: Binding seen in cells or lysates may run through a third protein. Some results given as binding are weak or reduced against the parent protein; the word gives no strength.

Chains of the proteins cited; added tags and fusions are not shown.
UniProt O43747: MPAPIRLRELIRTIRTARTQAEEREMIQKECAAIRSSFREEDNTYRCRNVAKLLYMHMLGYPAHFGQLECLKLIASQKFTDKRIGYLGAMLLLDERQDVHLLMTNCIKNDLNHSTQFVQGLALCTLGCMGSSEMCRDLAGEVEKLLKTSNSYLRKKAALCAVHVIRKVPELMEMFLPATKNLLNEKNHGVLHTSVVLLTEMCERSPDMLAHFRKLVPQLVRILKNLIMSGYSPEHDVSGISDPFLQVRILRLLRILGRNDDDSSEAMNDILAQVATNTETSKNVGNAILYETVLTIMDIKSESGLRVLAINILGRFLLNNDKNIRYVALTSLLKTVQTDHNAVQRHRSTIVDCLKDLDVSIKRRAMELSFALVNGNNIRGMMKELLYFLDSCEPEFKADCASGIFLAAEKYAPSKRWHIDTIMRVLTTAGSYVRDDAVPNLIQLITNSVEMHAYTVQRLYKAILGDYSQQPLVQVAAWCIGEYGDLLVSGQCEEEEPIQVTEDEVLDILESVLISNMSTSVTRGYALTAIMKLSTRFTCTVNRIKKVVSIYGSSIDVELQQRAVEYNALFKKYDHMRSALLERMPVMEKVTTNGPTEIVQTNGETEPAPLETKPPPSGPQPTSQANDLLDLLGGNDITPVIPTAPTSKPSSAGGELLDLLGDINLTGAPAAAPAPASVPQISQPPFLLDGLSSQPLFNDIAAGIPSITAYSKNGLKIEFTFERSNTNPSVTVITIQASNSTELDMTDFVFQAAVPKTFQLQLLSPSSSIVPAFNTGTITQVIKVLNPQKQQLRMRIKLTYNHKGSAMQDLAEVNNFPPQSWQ

What was measured:
[1] = molecular target: T1, ATP11B (human (endogenous in HEK293)) (UniProt Q9Y2G3); assay: native gel or EMSA; BN-MS: 0.5% DDM extract of purified early endosomes (HEK293) on a 4-16% NativePAGE gel, 48 slices, DIA mass spectrometry; co-fractionation profiles
T1 sequence: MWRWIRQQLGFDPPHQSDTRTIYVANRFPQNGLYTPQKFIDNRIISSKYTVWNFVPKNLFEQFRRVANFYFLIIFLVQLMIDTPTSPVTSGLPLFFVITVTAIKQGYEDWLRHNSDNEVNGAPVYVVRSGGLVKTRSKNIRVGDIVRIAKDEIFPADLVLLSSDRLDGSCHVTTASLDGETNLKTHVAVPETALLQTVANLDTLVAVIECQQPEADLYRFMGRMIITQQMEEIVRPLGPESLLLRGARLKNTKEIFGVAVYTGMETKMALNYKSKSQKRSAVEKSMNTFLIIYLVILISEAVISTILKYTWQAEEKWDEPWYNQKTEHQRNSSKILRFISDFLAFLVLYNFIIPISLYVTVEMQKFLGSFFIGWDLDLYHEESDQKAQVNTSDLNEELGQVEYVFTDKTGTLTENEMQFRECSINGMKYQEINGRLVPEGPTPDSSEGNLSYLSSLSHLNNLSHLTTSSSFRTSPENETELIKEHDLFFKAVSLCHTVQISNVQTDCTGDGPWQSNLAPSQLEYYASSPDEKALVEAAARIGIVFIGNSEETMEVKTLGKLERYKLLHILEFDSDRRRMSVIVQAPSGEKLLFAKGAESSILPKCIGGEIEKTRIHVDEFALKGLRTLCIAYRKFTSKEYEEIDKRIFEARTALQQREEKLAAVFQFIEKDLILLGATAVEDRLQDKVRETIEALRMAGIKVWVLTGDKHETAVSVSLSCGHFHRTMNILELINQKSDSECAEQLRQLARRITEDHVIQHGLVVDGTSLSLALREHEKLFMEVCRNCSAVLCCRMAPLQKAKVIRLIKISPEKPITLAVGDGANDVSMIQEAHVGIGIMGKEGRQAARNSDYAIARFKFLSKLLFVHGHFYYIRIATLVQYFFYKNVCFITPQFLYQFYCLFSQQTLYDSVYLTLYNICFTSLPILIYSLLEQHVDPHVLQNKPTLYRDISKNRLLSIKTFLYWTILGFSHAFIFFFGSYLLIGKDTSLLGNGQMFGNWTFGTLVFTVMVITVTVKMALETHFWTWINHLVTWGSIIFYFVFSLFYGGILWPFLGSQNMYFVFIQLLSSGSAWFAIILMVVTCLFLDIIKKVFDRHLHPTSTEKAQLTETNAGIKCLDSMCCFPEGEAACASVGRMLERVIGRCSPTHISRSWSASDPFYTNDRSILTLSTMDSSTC

[2] = molecular target: T2, TMEM30A (human (endogenous in HEK293)) (UniProt Q9NV96); assay: as above
T2 sequence: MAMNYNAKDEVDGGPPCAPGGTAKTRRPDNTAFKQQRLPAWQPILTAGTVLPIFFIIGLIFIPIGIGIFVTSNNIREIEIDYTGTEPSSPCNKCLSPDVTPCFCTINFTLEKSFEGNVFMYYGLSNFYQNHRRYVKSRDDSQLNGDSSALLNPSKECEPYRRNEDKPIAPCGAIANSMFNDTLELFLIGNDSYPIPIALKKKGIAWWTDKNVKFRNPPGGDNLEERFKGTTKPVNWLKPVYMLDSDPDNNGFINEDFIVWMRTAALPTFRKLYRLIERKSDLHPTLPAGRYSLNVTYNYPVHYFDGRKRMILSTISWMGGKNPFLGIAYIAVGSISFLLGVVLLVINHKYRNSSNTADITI

[3] = molecular target: T1, ATP11B (human (endogenous in HEK293)); assay: cross-linking; XL-MS: intact early endosomes (Endo-IP, HEK293 cells expressing Flag-EEA1, eluted with 3xFlag peptide, no detergent) cross-linked with 1 mM DSSO in KPBS at room temperature for 40 min; XlinkX, 5% FDR
[4] = molecular target: T3, CLCN7 (human (endogenous in HEK293)) (UniProt P51798); assay: as above
T3 sequence: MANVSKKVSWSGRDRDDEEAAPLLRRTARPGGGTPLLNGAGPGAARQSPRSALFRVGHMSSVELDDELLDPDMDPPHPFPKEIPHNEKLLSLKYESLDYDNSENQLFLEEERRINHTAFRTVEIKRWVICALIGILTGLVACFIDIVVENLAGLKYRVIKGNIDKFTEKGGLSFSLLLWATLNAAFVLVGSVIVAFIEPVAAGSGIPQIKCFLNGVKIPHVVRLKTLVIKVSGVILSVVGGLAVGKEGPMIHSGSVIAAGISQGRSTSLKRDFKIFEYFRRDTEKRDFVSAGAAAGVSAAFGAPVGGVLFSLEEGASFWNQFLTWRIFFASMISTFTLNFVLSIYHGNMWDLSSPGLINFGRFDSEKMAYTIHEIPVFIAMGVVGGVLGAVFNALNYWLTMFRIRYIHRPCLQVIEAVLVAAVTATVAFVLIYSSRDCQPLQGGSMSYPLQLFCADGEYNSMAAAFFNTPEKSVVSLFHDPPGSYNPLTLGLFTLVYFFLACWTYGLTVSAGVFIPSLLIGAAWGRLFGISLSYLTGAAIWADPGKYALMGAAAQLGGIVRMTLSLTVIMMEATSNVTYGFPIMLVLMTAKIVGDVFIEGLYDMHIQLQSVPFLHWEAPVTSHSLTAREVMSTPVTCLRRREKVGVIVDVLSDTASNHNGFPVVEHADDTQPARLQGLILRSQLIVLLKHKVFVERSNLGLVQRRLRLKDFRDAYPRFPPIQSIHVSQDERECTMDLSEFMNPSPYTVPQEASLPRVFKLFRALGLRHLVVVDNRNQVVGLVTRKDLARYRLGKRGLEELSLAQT

[5] = molecular target: AP1G1 (human (endogenous in HEK293)) (UniProt O43747); assay: as above
[6] = molecular target: T4, FLOT2 (human (endogenous in HEK293)) (UniProt Q14254); assay: as above
T4 sequence: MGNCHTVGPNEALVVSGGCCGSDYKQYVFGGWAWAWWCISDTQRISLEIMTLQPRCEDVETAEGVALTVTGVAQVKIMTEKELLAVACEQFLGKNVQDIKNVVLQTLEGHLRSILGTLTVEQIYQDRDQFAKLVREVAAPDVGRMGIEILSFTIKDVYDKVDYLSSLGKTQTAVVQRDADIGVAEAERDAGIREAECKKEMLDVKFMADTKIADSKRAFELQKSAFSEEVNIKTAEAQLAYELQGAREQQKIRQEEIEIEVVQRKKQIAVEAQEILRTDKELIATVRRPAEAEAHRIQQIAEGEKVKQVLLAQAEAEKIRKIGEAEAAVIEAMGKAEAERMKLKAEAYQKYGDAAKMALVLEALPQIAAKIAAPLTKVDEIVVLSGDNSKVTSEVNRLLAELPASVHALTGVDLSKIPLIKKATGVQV

[7] = molecular target: T5, STX8 (human (endogenous in HEK293)) (UniProt Q9UNK0); assay: as above
T5 sequence: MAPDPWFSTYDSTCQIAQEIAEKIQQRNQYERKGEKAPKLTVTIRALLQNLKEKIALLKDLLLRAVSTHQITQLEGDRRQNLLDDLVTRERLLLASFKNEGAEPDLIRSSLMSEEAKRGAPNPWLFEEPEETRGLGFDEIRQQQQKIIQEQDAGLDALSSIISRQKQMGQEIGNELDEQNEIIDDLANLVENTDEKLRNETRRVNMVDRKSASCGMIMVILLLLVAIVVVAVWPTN

B1: TMEM230 (protein, UniProt Q96A57 1-120)
chain: MMPSRTNLATGIPSSKVKYSRLSSTDDGYIDLQFKKTPPKIPYKAIALATVLFLIGAFLIIIGSLLLSGYISKGGADRAVPVLIIGILVFLPGFYHLRIAYYASKGYRGYSYDDIPDFDD
- binding [1]: binds
- binding [2]: binds
- binding [3]: binds

B2: OSTM1 (protein, UniProt Q86WC4 32-334)
chain: ALPFGSSPHRVFHDLLSEQQLLEVEDLSLSLLQGGGLGPLSLPPDLPDLDPECRELLLDFANSSAELTGCLVRSARPVRLCQTCYPLFQQVVSKMDNISRAAGNTSESQSCARSLLMADRMQIVVILSEFFNTTWQEANCANCLTNNSEELSNSTVYFLNLFNHTLTCFEHNLQGNAHSLLQTKNYSEVCKNCREAYKTLSSLYSEMQKMNELENKAEPGTHLCIDVEDAMNITRKLWSRTFNCSVPCSDTVPVIAVSVFILFLPVVFYLSSFLHSEQKKRKLILPKRLKSSTSFANIQENSN
- binding [4]: binds

B3: AP1S2 (protein, UniProt P56377 1-157)
chain: MQFMLLFSRQGKLRLQKWYVPLSDKEKKKITRELVQTVLARKPKMCSFLEWRDLKIVYKRYASLYFCCAIEDQDNELITLEIIHRYVELLDKYFGSVCELDIIFNFEKAYFILDEFLLGGEVQETSKKNVLKAIEQADLLQEEAETPRSVLEEIGLT
- binding [5]: binds

B4: FLOT1 (protein, UniProt O75955 1-427)
chain: MFFTCGPNEAMVVSGFCRSPPVMVAGGRVFVLPCIQQIQRISLNTLTLNVKSEKVYTRHGVPISVTGIAQVKIQGQNKEMLAAACQMFLGKTEAEIAHIALETLEGHQRAIMAHMTVEEIYKDRQKFSEQVFKVASSDLVNMGISVVSYTLKDIHDDQDYLHSLGKARTAQVQKDARIGEAEAKRDAGIREAKAKQEKVSAQYLSEIEMAKAQRDYELKKAAYDIEVNTRRAQADLAYQLQVAKTKQQIEEQRVQVQVVERAQQVAVQEQEIARREKELEARVRKPAEAERYKLERLAEAEKSQLIMQAEAEAASVRMRGEAEAFAIGARARAEAEQMAKKAEAFQLYQEAAQLDMLLEKLPQVAEEISGPLTSANKITLVSSGSGTMGAAKVTGEVLDILTRLPESVERLTGVSISQVNHKPLRTA
- binding [6]: binds

B5: VPS16 (protein, UniProt Q9H269 1-839)
chain: MDCYTANWNPLGDSAFYRKYELYSMDWDLKEELRDCLVAAAPYGGPIALLRNPWRKEKAASVRPVLDIYSASGMPLASLLWKSGPVVSLGWSAEEELLCVQEDGAVLVYGLHGDFRRHFSMGNEVLQNRVLDARIFHTEFGSGVAILTGAHRFTLSANVGDLKLRRMPEVPGLQSAPSCWTVLCQDRVAHILLAVGPDLYLLDHAACSAVTPPGLAPGVSSFLQMAVSFTYRHLALFTDTGYIWMGTASLKEKLCEFNCNIRAPPKQMVWCSRPRSKERAVVVAWERRLMVVGDAPESIQFVLDEDSYLVPELDGVRIFSRSTHEFLHEVPAASEEIFKIASMAPGALLLEAQKEYEKESQKADEYLREIQELGQLTQAVQQCIEAAGHEHQPDMQKSLLRAASFGKCFLDRFPPDSFVHMCQDLRVLNAVRDYHIGIPLTYSQYKQLTIQVLLDRLVLRRLYPLAIQICEYLRLPEVQGVSRILAHWACYKVQQKDVSDEDVARAINQKLGDTPGVSYSDIAARAYGCGRTELAIKLLEYEPRSGEQVPLLLKMKRSKLALSKAIESGDTDLVFTVLLHLKNELNRGDFFMTLRNQPMALSLYRQFCKHQELETLKDLYNQDDNHQELGSFHIRASYAAEERIEGRVAALQTAADAFYKAKNEFAAKATEDQMRLLRLQRRLEDELGGQFLDLSLHDTVTTLILGGHNKRAEQLARDFRIPDKRLWWLKLTALADLEDWEELEKFSKSKKSPIGYLPFVEICMKQHNKYEAKKYASRVGPEQKVKALLLVGDVAQAADVAIEHRNEAELSLVLSHCTGATDGATADKIQRARAQAQKK
- binding [7]: binds
